In the supplement of paper PMC11417369:
The list shows a part of the results.

system: PfSIP2 AP2 domain 1 (GST-tagged); assay: gcPBM binding intensity (ln(normalized median fluorescence intensity)); higher = stronger DNA binding
In short: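 GST-tagged P. falciparum DNA-binding domains, expressed in E. coli (about 25 μg on average), were applied for 1 h to an Agilent 4 × 180k array of primer-extended double-stranded 36-bp intergenic genomic probes plus negative controls. The binding buffer was 1× PBS with 1% milk, 0.2 mg/ml BSA, 0.5% salmon testes DNA and 0.03% Triton X-100. Bound protein was detected with Alexa488 anti-GST antibody and scanned at 488 nm. Binding intensity is the highest Masliner-normalised natural-log median intensity across replicate spots of either probe orientation.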

Sequence	gcPBM binding intensity (ln)
CCTATAAAACCATATACACACATATAAATAAAAAAA [CACACA_site7809]	7.14
TAAACTATATTTACATGTACATATAATATTAAATAA [XGTACX_site3528]	7.09
TATTACATTATTCAAAAAAATTTATATGGTTATAGG [CACACA_negctrl_site1657]	6.86
TGATAATAAGCATACACACACACACCCAAAAAAAAA [CACACA_site721]	7.17
AACTAAATGTTATTCGCACACGGAATTTATTTAATG [CACACA_site3664]	6.91
AAATAAAAAAAAAAAAAAAATAACTTAAATGGGATA [TGCATGCA_negctrl_site595]	6.62
TTTTTTTTTTCTTTTTTTCTCATGAAATTCTAAATG [CACACA_negctrl_site918]	7.05
ATATATATATATATATATATATATATGATTATTACT [GTGCAC_negctrl_site109]	9.39
AAAATTCAGCGAAAGGGTACATATGTGTAAGGGTAA [XGTACX_site8205]	7.16
TATATTTATATACCAACACACATACATATTTATATA [CACACA_site6931]	6.93
CTATTATATCAGTAGACACACATATAACATTTATAT [CACACA_site141]	7.23
ATCTTATATTATCACACACACACGCACAAAACAGAA [CACACA_site1463]	7.79
TTTATTAAACTTGACACACACACACCCACATATATA [CACACA_site760]	7.29
ATATTATATAGAAACACACATACACATGTAAATATA [CACACA_site2037]	6.98
ATGGATTTTACCATAGCACACATATATGAATATTTT [CACACA_site8535]	6.88
ATATAGAAAATGCATACACACTTTATATATATATTT [CACACA_site4658]	6.89
TAATTATTTCGTATATTTGAATGGTACATGCTTATA [CACACA_negctrl_site1178]	6.92
AATGTGCTCGCTATTACACACTCATTGGGATAAAAT [CACACA_site8627]	6.91
AGTAACAATTATTATGCATGTACAAATAATCATTTT [TGCATGCA_site867]	6.98
TATATATATTTTTGAAGTACTTATTACACTAGCATT [XGTACX_site8965]	7.31
AAGAAAATATAACAAAGTAAAAACATATTATATATA [TGCATGCA_negctrl_site248]	6.62
ATATATATATATATATGTACATATATTTTCTTTTTG [XGTACX_site6017]	9.7
TTGTTCTATAATTATACATGCATTAACAGAGTAAAA [TGCATGCA_site909]	7.61
AAAAACGATTAATGTGTACACACATAGTTATAAACA [CACACA_site8659]	6.9
TTTTTTTTTTTTTAATGTACAAATATGGTGACAAAA [XGTACX_site8709]	7.31
AGGATAACATACAAAAGTACATAAAACTAAAAAAAC [XGTACX_site26]	7.32
TGGGAATAACGACACACACACACACGGATATAAATA [CACACA_site7633]	7.13
TATATTTTGTTTTTGTGTACATATTGGTAGTTATTT [XGTACX_site7659]	7.21

Sequence	gcPBM binding intensity (ln)
AAAAATAGTCTTCTTGCACTTTTTAATTTATTTTAA [CACACA_negctrl_site1322]	7.29
TGATTATCCTATATATATTTCATAATGGAAAAAAAT [TGCATGCA_negctrl_site444]	7.04
AATGTGGTATTTACAAAAAGGCTTTATACTTAAAAA [XGTACX_negctrl_site566]	7.08
CTTTTCATCTTCTTAACACACAAAAAAAAAAAAAAA [CACACA_site3886]	7.39
CTTTTTATTAAATATGCATGTGTATCAACAGTGAAT [TGCATGCA_site447]	7.31
GTTATACGCATATATACACACATATGTAAATATATA [CACACA_site3280]	7.17
TAAAAAAAATAGCATACACACATATATACCTATATA [CACACA_site4535]	6.79
ATCATAACACCTCCACACAAATAAATATAACATATA [XGTACX_negctrl_site269]	7.34
ATGAGTGCACAAATATATATATATATATATATATAT [CACACA_negctrl_site404]	11.6
CATACACCCGGACACACACACACACCCATATATAAT [CACACA_site4494]	7.36
TTGTTTTTTTCTTTTTGTACATATACAACATACATA [XGTACX_site8996]	7.21
AAACAATTTATGTGTAGTACATGTTGGAGATAATTT [XGTACX_site6000]	7.22
GAAAATATATTATTTACACACATGTTCAAATTAAAA [CACACA_site3761]	6.85
TATTAAATATAAGTCACACATAATTTTTCGTCCTTT [CACACA_site5065]	6.79
ATATATATATATACAACACACATGTAATATATAAAT [CACACA_site3294]	9.24
TACTGATCCACATTTATACACACCTCGGTTTGTAGA [CACACA_site417]	6.89
TTTTTAAATATATAATAGAATTGATTGTATTATATA [CACACA_negctrl_site196]	6.64
TATAGATTCTTTTAATGTACATGTCTTTTCATTTCC [XGTACX_site8348]	7.1
TTGTGTTCTTATTTTTACACCGAAAAATATTAAAAG [CACACA_negctrl_site535]	7.41
CCTTTATACATTTTCTGTACTGATATATATTAAAAA [XGTACX_site8467]	7.44
GTATGAAAAAAAATATGTACACATATATATTTGGTA [XGTACX_site6309]	7.07
ATATAAAAAAAAAAAAAAAAATATATATATATATAT [GTGCAC_negctrl_site251]	9.67
TTGGTTTGAAAGAAAGAAATTATTAAAAAGGAAATA [CACACA_negctrl_site26]	6.72
GATATACTGTCAATTCTACACACCATAGGGGGAGCA [CACACA_site8562]	8.06
ATATATTTATTAAGGTGTACAAAAATTATGTTGCAT [XGTACX_site7546]	7.16
TATTTTATCTAAGGATGTACATTATTAAGAAAATGT [XGTACX_site6123]	7.03
TAGAAATATAATTAATGTACATATGATATTATATAT [XGTACX_site923]	6.97
